{
  "source": "paper PMC4336329",
  "about": "(PLoS ONE, 2015)",
  "note": "About 14,000 (4.5%) of roughly 310,000 compounds showed an effect of 50% or more. The effect is printed as a negative number. This is one part of the list.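 Note: peak tail current of the secondary pulse compared with the same well before compound.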",
  "data": [
    {"target": "human ether-à-go-go-related gene (hERG) potassium channel (human, UniProt Q12809)", "sequence (Q12809 whole entry, looked up)": "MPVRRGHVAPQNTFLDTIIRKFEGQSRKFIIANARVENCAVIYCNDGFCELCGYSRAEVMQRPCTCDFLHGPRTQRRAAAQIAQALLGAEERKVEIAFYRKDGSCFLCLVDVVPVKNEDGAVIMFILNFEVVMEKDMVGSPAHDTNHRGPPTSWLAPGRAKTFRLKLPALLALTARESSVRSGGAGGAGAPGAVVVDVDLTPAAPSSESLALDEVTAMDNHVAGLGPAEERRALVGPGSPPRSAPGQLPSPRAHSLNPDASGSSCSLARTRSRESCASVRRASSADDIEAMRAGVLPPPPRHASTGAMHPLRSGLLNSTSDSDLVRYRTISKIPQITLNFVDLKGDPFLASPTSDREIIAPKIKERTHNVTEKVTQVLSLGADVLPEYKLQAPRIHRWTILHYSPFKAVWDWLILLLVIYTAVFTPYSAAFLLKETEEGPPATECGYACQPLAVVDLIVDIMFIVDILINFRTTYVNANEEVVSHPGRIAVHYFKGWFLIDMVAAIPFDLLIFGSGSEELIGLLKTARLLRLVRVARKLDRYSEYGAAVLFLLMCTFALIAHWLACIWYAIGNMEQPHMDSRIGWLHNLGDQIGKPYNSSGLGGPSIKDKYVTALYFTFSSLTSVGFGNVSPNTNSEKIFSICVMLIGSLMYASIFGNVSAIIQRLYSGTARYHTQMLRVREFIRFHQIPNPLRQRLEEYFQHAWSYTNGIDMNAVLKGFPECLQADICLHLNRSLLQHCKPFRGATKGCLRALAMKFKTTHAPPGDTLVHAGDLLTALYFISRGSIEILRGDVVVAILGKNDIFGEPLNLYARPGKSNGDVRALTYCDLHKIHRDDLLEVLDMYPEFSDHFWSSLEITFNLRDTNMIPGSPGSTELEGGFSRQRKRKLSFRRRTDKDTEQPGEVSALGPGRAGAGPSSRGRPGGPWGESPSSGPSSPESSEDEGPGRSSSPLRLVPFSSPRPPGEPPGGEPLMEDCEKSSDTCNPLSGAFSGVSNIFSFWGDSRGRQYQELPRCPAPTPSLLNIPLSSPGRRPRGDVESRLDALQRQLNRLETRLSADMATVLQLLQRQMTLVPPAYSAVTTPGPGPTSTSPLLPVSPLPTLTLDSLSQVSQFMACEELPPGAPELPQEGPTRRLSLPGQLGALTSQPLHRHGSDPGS", "test": "primary screen, population patch clamp on CHO cells stably expressing hERG", "units": {"hERG current change (%, negative = inhibition) at 10uM": "%"}, "values": [
      {"smiles": "COc1ccccc1N1CCN(S(=O)(=O)Cc2ccccc2Cl)CC1", "hERG current change (%, negative = inhibition) at 10uM": -2.74},
      {"smiles": "CCOC(=O)C1(Cc2ccccc2)CCN(Cc2nccn2CC)CC1", "hERG current change (%, negative = inhibition) at 10uM": -20},
      {"smiles": "COc1ccccc1N1CCN(c2ccc(N3C(=O)CCC3=O)cc2[N+](=O)[O-])CC1", "hERG current change (%, negative = inhibition) at 10uM": 23.5},
      {"smiles": "CC(C)=C(NC(=O)c1ccccc1)C(=O)N1CCOCC1", "hERG current change (%, negative = inhibition) at 10uM": 1.45},
      {"smiles": "O=C(COc1ccc(/C=N/NC(=O)c2ccc(O)cc2)cc1)Nc1ccc([N+](=O)[O-])cc1", "hERG current change (%, negative = inhibition) at 10uM": 8.14},
      {"smiles": "COc1ccc(-c2cc(C(=O)NCCCn3ccnc3)c3ccccc3n2)c(OC)c1", "hERG current change (%, negative = inhibition) at 10uM": -32},
      {"smiles": "COc1cc(NC(=O)c2cccs2)c(OC)cc1NC(=O)CCC(=O)Nc1cccc2ncccc12.Cl", "hERG current change (%, negative = inhibition) at 10uM": -9.27},
      {"smiles": "C/C(=N/NC(=O)c1cccs1)c1ccc(N2CCOCC2)cc1", "hERG current change (%, negative = inhibition) at 10uM": 4.72},
      {"smiles": "COC(=O)c1sc(C(F)(F)F)c(-c2ccccc2)c1S(=O)(=O)NC(C)(C)C", "hERG current change (%, negative = inhibition) at 10uM": 1.82},
      {"smiles": "CC1=C(C(=O)OC(C)C)C(c2coc3ccccc3c2=O)C2=C(CCCC2=O)N1", "note": "(centres unmarked)", "hERG current change (%, negative = inhibition) at 10uM": -0.803},
      {"smiles": "Cc1ccc(/C=N/NC(=O)Cn2nc(C)c([N+](=O)[O-])c2C)o1", "hERG current change (%, negative = inhibition) at 10uM": 9.12},
      {"smiles": "CC1(C)CC(CCNC(=O)CCl)(c2ccccc2)CCO1", "note": "(centres unmarked)", "hERG current change (%, negative = inhibition) at 10uM": 22.1},
      {"smiles": "O=C(N/N=C/C=C/c1ccccc1[N+](=O)[O-])c1cc(-c2cccnc2)nc2ccccc12", "hERG current change (%, negative = inhibition) at 10uM": -2.81},
      {"smiles": "Cc1c(Cl)c([N+](=O)[O-])nn1Cc1ccc(C(=O)NN)o1", "hERG current change (%, negative = inhibition) at 10uM": -1.63},
      {"smiles": "Cc1cc(C)n(-c2nc3c(c(=O)[nH]c(=O)n3C)n2Cc2ccc(F)cc2)n1", "hERG current change (%, negative = inhibition) at 10uM": -4.72},
      {"smiles": "Cc1onc(-c2ccccc2)c1C(=O)N/N=C/C=C/c1ccccc1", "hERG current change (%, negative = inhibition) at 10uM": 8.24},
      {"smiles": "CC(C)NC(=O)CN(Cc1ccc2c(c1)OCO2)C(=O)CCC(=O)Nc1ccccn1", "hERG current change (%, negative = inhibition) at 10uM": 1.7},
      {"smiles": "Cc1ccc(C2=N/C(=C\\c3cccnc3)C(=O)O2)cc1", "hERG current change (%, negative = inhibition) at 10uM": 4.43},
      {"smiles": "COc1ccc(C(=O)C2CCCN(Cc3cnc(N4CCOCC4)s3)C2)cc1F", "note": "(centres unmarked)", "hERG current change (%, negative = inhibition) at 10uM": -47.6},
      {"smiles": "COc1ccc(CNC(=O)CNC(=O)c2cccs2)c(OC)c1", "hERG current change (%, negative = inhibition) at 10uM": 13},
      {"smiles": "O=C(CN(CCc1ccccc1)S(=O)(=O)c1ccc(Cl)cc1)N/N=C/c1ccccc1C(=O)O", "hERG current change (%, negative = inhibition) at 10uM": 14.6},
      {"smiles": "O=C(Nc1cccc(C(F)(F)F)c1)Nn1cnnc1", "hERG current change (%, negative = inhibition) at 10uM": 24},
      {"smiles": "Cc1cc(C)c2[nH]c(=O)c(CN(CC3CCCO3)C(=O)c3cnccn3)cc2c1", "note": "(centres unmarked)", "hERG current change (%, negative = inhibition) at 10uM": -2.75},
      {"smiles": "O=C(Nc1ccc2c(c1)CCC2)c1cccc(F)c1", "hERG current change (%, negative = inhibition) at 10uM": -14.1},
      {"smiles": "COc1cc(/C=N/NC(=O)COc2ccc(Cl)cc2)ccc1OS(=O)(=O)c1ccc(C)cc1", "hERG current change (%, negative = inhibition) at 10uM": 0.463},
      {"smiles": "Cc1cc(NC(=O)c2ccc3c(c2)C(=O)N(Cc2cccnc2)C3=O)no1", "hERG current change (%, negative = inhibition) at 10uM": 9.59},
      {"smiles": "COc1ccccc1CNC(=O)CSc1nc2c(oc3ccccc32)c(=O)n1CC1CCCO1", "note": "(centres unmarked)", "hERG current change (%, negative = inhibition) at 10uM": -7.92},
      {"smiles": "O=C(N/N=C/c1ccc(Cl)c([N+](=O)[O-])c1)c1cc(-c2ccccc2)nc2ccccc12", "hERG current change (%, negative = inhibition) at 10uM": 17.1},
      {"smiles": "C/C(=N\\NC(=O)CNC(=O)c1ccncc1)c1ccc(C)cc1", "hERG current change (%, negative = inhibition) at 10uM": 5.81},
      {"smiles": "CCOC(=O)C1=C(COC(=O)c2ccc3ccccc3c2O)NC(=O)NC1C", "note": "(centres unmarked)", "hERG current change (%, negative = inhibition) at 10uM": -32.4},
      {"smiles": "Cc1ccc2nc(-c3ccccn3)oc2c1", "hERG current change (%, negative = inhibition) at 10uM": 8.03},
      {"smiles": "COc1cccc(NCc2nnc(SCC(=O)N(C)C3CCS(=O)(=O)C3)n2C2CCCCC2)c1", "note": "(centres unmarked)", "hERG current change (%, negative = inhibition) at 10uM": 6.11},
      {"smiles": "O=C(Nc1ccnn1C1CCN(Cc2c(F)cccc2Cl)CC1)C1CCCC1", "hERG current change (%, negative = inhibition) at 10uM": -32.1},
      {"smiles": "FC(F)(F)c1ccccc1NC(=S)N1CCN(c2ncccn2)CC1", "hERG current change (%, negative = inhibition) at 10uM": 9.67},
      {"smiles": "COc1cc(OC)cc(C(=O)OC(C)C(=O)NC2CCCc3ccccc32)c1", "note": "(centres unmarked)", "hERG current change (%, negative = inhibition) at 10uM": 5.94},
      {"smiles": "CCOC(=O)[C@@H]1[C@H]2COc3ccc(Br)cc3[C@@H]2N2C(=O)N(c3ccc(C(F)(F)F)cc3)C(=O)[C@]12C", "hERG current change (%, negative = inhibition) at 10uM": 20},
      {"smiles": "O=C(O)c1ccc(Cn2c(=S)[nH]c3cc(Cl)ccc3c2=O)cc1", "hERG current change (%, negative = inhibition) at 10uM": 16},
      {"smiles": "c1ccc(-n2c(SCC3CCCCO3)nnc2-c2cccs2)cc1", "note": "(centres unmarked)", "hERG current change (%, negative = inhibition) at 10uM": -11},
      {"smiles": "Cc1ccc(Cn2cccc(NC(=O)NCc3ccccc3)c2=O)cc1", "hERG current change (%, negative = inhibition) at 10uM": -6.27},
      {"smiles": "O=C(CSc1nnc2ccc(-c3cccnc3)nn12)Nc1ccc(F)cc1F", "hERG current change (%, negative = inhibition) at 10uM": -64.9},
      {"smiles": "CCOC(=O)c1sc(-c2ccc(Cl)cc2Cl)nc1O", "hERG current change (%, negative = inhibition) at 10uM": 17.8},
      {"smiles": "CC(C)(C)NS(=O)(=O)c1cccc2nsnc12", "hERG current change (%, negative = inhibition) at 10uM": 19.9},
      {"smiles": "COc1cccc(-c2cc(C(=O)NCCCn3ccnc3)no2)c1", "hERG current change (%, negative = inhibition) at 10uM": -10.1},
      {"smiles": "Cc1nc(-c2ccccc2)sc1C1(C)CC(c2ccc(C#N)cc2)=NO1", "note": "(centres unmarked)", "hERG current change (%, negative = inhibition) at 10uM": -3.07},
      {"smiles": "CCCC(=O)Oc1ccc(N(C(=O)CCC)S(=O)(=O)c2cccs2)cc1", "hERG current change (%, negative = inhibition) at 10uM": 10.9},
      {"smiles": "Cc1cc(-c2ccc(N3C(=O)CCC3=O)c(C)c2)ccc1N1C(=O)CCC1=O", "hERG current change (%, negative = inhibition) at 10uM": 10.1},
      {"smiles": "Cc1ccc(CC(CC(=O)O)C(=O)Nc2ccc(Cl)cc2)cc1", "note": "(centres unmarked)", "hERG current change (%, negative = inhibition) at 10uM": 3.33},
      {"smiles": "O=C(NCC1CCN(S(=O)(=O)c2ccccc2)CC1)Nc1ccc(F)cc1F", "hERG current change (%, negative = inhibition) at 10uM": -4.47},
      {"smiles": "CCc1nnc(NS(=O)(=O)c2ccc(N/C=C\\C(=O)c3ccc(F)cc3)cc2)s1", "hERG current change (%, negative = inhibition) at 10uM": 31.2},
      {"smiles": "CC(NC(=O)NC1CCCCC1)C(c1cccs1)N1CCN(Cc2ccccc2)CC1", "note": "(centres unmarked)", "hERG current change (%, negative = inhibition) at 10uM": -56.7},
      {"smiles": "Cc1ccc(NC(=O)c2ccc(S(=O)(=O)C(F)F)cc2)c(C)c1", "hERG current change (%, negative = inhibition) at 10uM": -19.7},
      {"smiles": "CCCn1c(=O)c(C(=O)N/N=C/c2ccccc2F)c(O)c2ccccc21", "hERG current change (%, negative = inhibition) at 10uM": 9.04},
      {"smiles": "COc1ccc(/C(O)=C2\\C(=O)C(=O)N(CC3CCCO3)C2c2cc(OC)ccc2OC)cc1", "note": "(centres unmarked)", "hERG current change (%, negative = inhibition) at 10uM": -4.68}
    ]}
  ]
}
